Experimental data as given in the supplement of paper PMC4967469.
The IC50 comes from the fitted curve, where viability falls to half of the control; a limit (>, <) means that the fit lies beyond the doses tested. AUC sums up the same curve from the lowest dose to the 256-fold higher top dose; values near 1 show little effect. For part of these data: Where the top dose is marked as inferred, it was calculated from the reported fits. For part of these data: Drugs with an entry number were screened twice under separate entries, and the two screens often disagree.

How the values were obtained:
Test in all cases: Viability of human cancer cell lines after 72 h of drug (GDSC screen)
GNF-2 = compound: NC(=O)c1cccc(-c2cc(Nc3ccc(OC(F)(F)F)cc3)ncn2)c1 [GNF-2]; details: top dose 1.28 µM; top dose inferred
Method: (§1)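 Human cancer cell lines in 384-well plates, medium with 10% serum, drug for 72 h over a 256-fold dose range (nine 2-fold or five 4-fold steps up to the top dose). Adherent lines were fixed and stained with the nucleic acid dye Syto60, suspension lines read with resazurin; signal relative to control wells, capped at 0 and 100%. One two-parameter sigmoid per drug and line, fitted in a mixed model over all curves with the slope shared within a line.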

MP470 = compound: S=C(NCc1ccc2c(c1)OCO2)N1CCN(c2ncnc3c2oc2ccccc23)CC1 [MP470]; details: top dose 20 µM; top dose inferred
Method: as §1

TW-37 = compound: CC(C)c1ccccc1Cc1cc(C(=O)Nc2ccc(S(=O)(=O)c3ccccc3C(C)(C)C)cc2)c(O)c(O)c1O [TW-37]; details: top dose 5 µM
Method: as §1

Bicalutamide = compound: CC(O)(CS(=O)(=O)c1ccc(F)cc1)C(=O)Nc1ccc(C#N)c(C(F)(F)F)c1 [Bicalutamide]; details: top dose inferred
Method: as §1

LFM-A13 = compound: C/C(O)=C(\C#N)C(=O)Nc1cc(Br)ccc1Br [LFM-A13]; details: top dose 16 µM; top dose inferred
Method: as §1

KIN001-270 = compound: Cc1ccc(Nc2cc(-c3cccc(N4C(=O)c5ccccc5C4=O)c3)ncn2)cc1NS(C)(=O)=O [KIN001-270]; details: top dose 20 µM; top dose inferred
Method: as §1

Gemcitabine = compound: Nc1ccn([C@@H]2O[C@H](CO)[C@@H](O)C2(F)F)c(=O)n1 [Gemcitabine]; details: top dose 1.024 µM
Method: as §1

AUY922 = compound: CCNC(=O)c1noc(-c2cc(C(C)C)c(O)cc2O)c1-c1ccc(CN2CCOCC2)cc1 [AUY922]; details: top dose 0.256 µM; top dose inferred
Method: as §1

T0901317 = compound: O=S(=O)(c1ccccc1)N(CC(F)(F)F)c1ccc(C(O)(C(F)(F)F)C(F)(F)F)cc1 [T0901317]; details: top dose 10.24 µM; top dose inferred
Method: as §1

Nilotinib = compound: Cc1cn(-c2cc(NC(=O)c3ccc(C)c(Nc4nccc(-c5cccnc5)n4)c3)cc(C(F)(F)F)c2)cn1 [Nilotinib]; details: top dose 2 µM
Method: as §1

[1] = top dose 1.024 µM, screen: GDSC drug entry 150
[2] = top dose 10 µM, screen: GDSC drug entry 1502

| Cell Line | AUC (GNF-2) | IC50 (GNF-2) | AUC (MP470) | IC50 (MP470) | AUC (TW-37) | IC50 (TW-37) | AUC (Bicalutamide; [1]) | IC50 (Bicalutamide; [1]) | AUC (Bicalutamide; [2]) | IC50 (Bicalutamide; [2]) | AUC (LFM-A13) | IC50 (LFM-A13) | AUC (KIN001-270) | IC50 (KIN001-270) | AUC (Gemcitabine) | IC50 (Gemcitabine) | AUC (AUY922) | IC50 (AUY922) | AUC (T0901317) | IC50 (T0901317) | AUC (Nilotinib) | IC50 (Nilotinib) |
| --- | --- | --- | --- | --- | --- | --- | --- | --- | --- | --- | --- | --- | --- | --- | --- | --- | --- | --- | --- | --- | --- | --- |
| BE-13 (lymphoblastic leukaemia, suspension) | 0.948 | > 1.28 µM | 0.932 | > 20 µM | 0.608 | 0.606 µM | 0.987 | > 1.02 µM | 0.971 | > 10 µM | 0.982 | > 16 µM | 0.944 | > 20 µM | 0.237 | 0.0118 µM | 0.608 | 0.031 µM | 0.951 | > 10.2 µM | 0.77 | 0.713 µM |
| ML-2 (acute myeloid leukaemia, suspension) | 0.984 | > 1.28 µM | 0.861 | 14 µM | 0.695 | 1.02 µM | 0.989 | > 1.02 µM | 0.987 | > 10 µM | 0.973 | > 16 µM | 0.976 | > 20 µM | 0.24 | 0.0126 µM | 0.546 | 0.0211 µM | 0.904 | > 10.2 µM | 0.964 | > 2 µM |
| NCI-H1155 (large cell lung carcinoma, suspension) | 0.993 | > 1.28 µM | 0.921 | > 20 µM | 0.469 | 0.261 µM | 0.991 | > 1.02 µM | 0.993 | > 10 µM | 0.993 | > 16 µM | 0.977 | > 20 µM | 0.67 | 0.173 µM | 0.92 | > 0.256 µM | 0.988 | > 10.2 µM | 0.969 | > 2 µM |
| NCI-H1770 (non-small cell lung carcinoma, suspension) | 0.992 | > 1.28 µM | 0.933 | > 20 µM | 0.461 | 0.248 µM | 0.992 | > 1.02 µM | 0.99 | > 10 µM | 0.988 | > 16 µM | 0.987 | > 20 µM | 0.518 | 0.0714 µM | 0.733 | 0.0667 µM | 0.991 | > 10.2 µM | 0.987 | > 2 µM |
| NCI-H1694 (small cell lung carcinoma, suspension) | 0.989 | > 1.28 µM | 0.837 | 13.3 µM | 0.646 | 0.789 µM | 0.989 | > 1.02 µM | 0.988 | > 10 µM | 0.985 | > 16 µM | 0.974 | > 20 µM | 0.54 | 0.0822 µM | 0.914 | > 0.256 µM | 0.954 | > 10.2 µM | 0.983 | > 2 µM |
| HCC2218 (breast, suspension) | 0.965 | > 1.28 µM | 0.463 | 0.963 µM | 0.673 | 1.08 µM | 0.979 | > 1.02 µM | 0.98 | > 10 µM | 0.976 | > 16 µM | 0.922 | > 20 µM | 0.93 | > 1.02 µM | 0.713 | 0.076 µM | 0.937 | > 10.2 µM | 0.983 | > 2 µM |
| NCI-SNU-16 (stomach, suspension) | 0.991 | > 1.28 µM | 0.951 | > 20 µM | 0.972 | > 5 µM | 0.989 | > 1.02 µM | 0.99 | > 10 µM | 0.991 | > 16 µM | 0.991 | > 20 µM | 0.991 | > 1.02 µM | 0.991 | > 0.256 µM | 0.966 | > 10.2 µM | 0.99 | > 2 µM |
| EC-GI-10 (oesophagus, adherent) | 0.989 | > 1.28 µM | 0.701 | 4.57 µM | 0.589 | 0.547 µM | 0.984 | > 1.02 µM | 0.982 | > 10 µM | 0.987 | > 16 µM | 0.963 | > 20 µM | 0.967 | > 1.02 µM | 0.94 | > 0.256 µM | 0.988 | > 10.2 µM | 0.988 | > 2 µM |
| OS-RC-2 (kidney, adherent) | 0.971 | > 1.28 µM | 0.915 | > 20 µM | 0.619 | 0.768 µM | 0.971 | > 1.02 µM | 0.975 | > 10 µM | 0.941 | > 16 µM | 0.971 | > 20 µM | 0.316 | 0.0155 µM | 0.616 | 0.0386 µM | 0.974 | > 10.2 µM | 0.954 | > 2 µM |
| LU-134-A (small cell lung carcinoma, suspension) | 0.987 | > 1.28 µM | 0.882 | > 20 µM | 0.717 | 1.34 µM | 0.987 | > 1.02 µM | 0.985 | > 10 µM | 0.973 | > 16 µM | 0.982 | > 20 µM | 0.536 | 0.0808 µM | 0.587 | 0.0282 µM | 0.986 | > 10.2 µM | 0.977 | > 2 µM |
| SK-MEL-1 (melanoma, suspension) | 0.988 | > 1.28 µM | 0.893 | 18.2 µM | 0.881 | 4.02 µM | 0.993 | > 1.02 µM | 0.993 | > 10 µM | 0.993 | > 16 µM | 0.986 | > 20 µM | 0.979 | > 1.02 µM | 0.947 | > 0.256 µM | 0.992 | > 10.2 µM | 0.981 | > 2 µM |
| GDM-1 (acute myeloid leukaemia, suspension) | 0.984 | > 1.28 µM | 0.892 | > 20 µM | 0.835 | 3.09 µM | 0.984 | > 1.02 µM | 0.971 | > 10 µM | 0.98 | > 16 µM | 0.918 | > 20 µM | 0.519 | 0.0719 µM | 0.337 | 0.00576 µM | 0.851 | 7.35 µM | 0.907 | > 2 µM |
